Several values for one entry are separate records, joined by “and”; a condition that tells them apart may be missing. Equal values may be shown once.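 Growth conditions: 96-well plates. Treatment: test compound, 48 hours, 5 concentrations. Analysis: linear interpolation between bracketing concentrations; unreached endpoints set to highest concentration. GI50: concentration for 50% inhibition of growth.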 Activity calls are given as the source filed them. No stated cut-off is given here; in the data, active = GI50 up to about 1.1 µM and inactive = higher.

The subject of this experiment is NCI-H322M. In words: NCI-60 cell line screen, 48 h.
With `Clc1ccc(-c2nnc(-c3cccc4ccccc34)o2)cc1Cl`, the GI50 was inactive: > 100 µM. As for `CC(C)C(C/C=C1/CC(CO)(COC(=O)C(C)(C)C)OC1=O)C(C)C` (centres undefined), the figure is inactive: 13 µM; as for `OC(c1cc(-c2ccc(Cl)cc2)nc2ccccc12)C1CCCCN1` (centres undefined), inactive: 2.33 µM. For `CC(C)(C)COS(=O)OCC(C)(C)C` the value was inactive: > 100 µM; for `CCN(Cc1cc(Cl)cc(C)c1O)Cc1c(O)ccc2ccccc12`, inactive: 17.4 µM.

For `[N-]=[N+]=Nc1ccc(CCN2CCN(c3cccc(C(F)(F)F)c3)CC2)cc1I`, the GI50 is inactive: 87.9 µM. As for `COc1ccc2ccccc2c1C1NC(=O)c2ccccc2N1` (centres undefined), the figure is inactive: 6.21 µM; as for `CCC1C(c2cc(OC)c(OC)c(OC)c2)c2cc3c(cc2OC1N1CCCC1)OCO3` (centres undefined), inactive: 3.39 µM; as for `CN(C)CCNC(=O)c1cccc2ccc(-c3ccc(-c4ccccc4)cc3)nc12`, inactive: 12.3 µM. As for `CC1CC(C)C(=O)C(C(=O)CC2CC(=O)NC2=O)C1` (centres undefined), the figure is inactive: > 100 µM; as for `O=C1Oc2ccccc2C(=O)/C1=C/N1C(=O)N/C(=C\c2cccc(O)c2)C1=O`, inactive: 84.7 µM; as for `CCOC(=O)/C=C(/N=P(c1ccccc1)(c1ccccc1)c1ccccc1)C(F)(F)F`, inactive: > 10 µM.

On to `CC(=O)/C(=N\O)C(=O)NCCc1ccccc1`, for which the GI50 was inactive: > 100 µM.

On to `O=C(O)c1ccccc1SCc1cccc2c(=O)c3ccc(Cl)cc3oc12`, for which the GI50 is inactive: > 50 µM. As for `COc1ccc2oc(=N)c(C(=O)Nc3cccc4ccccc34)cc2c1`, the figure is inactive: 56.8 µM.

On to `COc1cc(C)cc(C(=O)OCc2ccccc2)c1C1=C(Cl)C(=O)C(Cl)=CC1=O`, for which the GI50 is inactive: > 10 µM. For `O=[N+]([O-])c1ccc(-c2ccc(C3=Nn4c(nnc4-c4ccc(Cl)cc4)SC3)o2)cc1` the value was inactive: > 91.4 µM; for `CC(=O)OCc1cc2ccccc2nc1C(Br)(Br)Br`, inactive: 12.8 µM. As for `COC(=O)C12C3C4C1C1C2C3C41I` (centres undefined), the figure is inactive: > 100 µM. As for `Cc1cc(C)c2c(c1)CC1(Cc3cc(C)c(C)cc3C1=O)C2=O` (centres undefined), the figure is inactive: > 100 µM; as for `CC1=CCCC(OC(N)=O)C1` (centres undefined), inactive: > 100 µM; as for `O=C1C=CC2CCC1C2` (centres undefined), inactive: 29.4 µM. Turning to `CCCOC(=O)C1CCC(=O)N1C(=O)C(Cl)Cl` (centres undefined), the GI50 is inactive: > 100 µM. As for `Cc1cc2nc(CC(C(F)(F)F)C(F)(F)F)oc2cc1C`, the figure is inactive: 3.27 µM. As for `N#C/C(=C\c1ccc(F)cc1)c1nc2ccccc2c(=O)[nH]1`, the figure is inactive: > 100 µM; as for `COC(=O)C1(Cc2ccccc2C)Cc2ccc(C)cc2C1=O` (centres undefined), inactive: 61.4 µM; as for `CCCCCCCCCCCCCCCCCCOCC(O)COP(=O)(O)OCC1OC(n2cc(F)c(=O)[nH]c2=O)CC1O` (centres undefined), active: 0.637 µM.

`C/C(CCN(C)C)=N/O`: the GI50 is inactive: 24.3 µM. As for `N[C@H](C(=O)O)[C@@H]1CC(Br)=NO1`, the figure is inactive: 14.8 µM; as for `COc1ccc2c(c1)NC1(CCN(CCCC(=O)c3ccc(F)cc3)CC1)N=N2`, inactive: 30.4 µM; as for `CCOC(=O)C1=C(C)N(C2OC(COC(=O)c3ccccc3)C(OC(=O)c3ccccc3)C2OC(=O)c2ccccc2)C(=S)NC1c1ccccc1` (centres undefined), inactive: > 100 µM. For `CC1(C)C2CCC3(C2)CS(=O)(=O)N2OC231` (centres undefined) the value was inactive: > 100 µM; for `COC(=O)C1C(O)CCC2CN3CCc4c([nH]c5ccccc45)C3CC21` (centres undefined), inactive: > 100 µM and inactive: > 77.3 µM; for `O=NN(CCCl)C(=O)NCc1ccc[n+]([O-])c1`, inactive: > 100 µM. For `Cc1cc(C(=O)N2CCN(Cc3ccccc3)CC2)c(C)o1` the value was inactive: > 100 µM; for `O=C(N/C=C1\C(=O)Oc2ccccc2C1=O)NC1CCCCC1`, inactive: 29 µM; for `CCCC1C(C#N)(C#N)C(C#N)=C(N)C1(C)C(C)=O` (centres undefined), inactive: > 100 µM.

Consider `Fc1ccc(Nc2nc(Cl)c3nc[nH]c3n2)cc1Cl`, for which the GI50 was inactive: 89.3 µM.

As for `O=[N+]([O-])c1ccc(N2N=C(c3ccc4ccccc4c3O)CC2c2ccc(Cl)cc2Cl)c([N+](=O)[O-])c1` (centres undefined), the GI50 was inactive: 41.9 µM. For `Cc1ccc(S(=O)(=O)N(CC(O)COc2ccccc2)c2c(F)cccc2F)cc1` (centres undefined) the value was inactive: 27.6 µM; for `CS(=O)(=O)c1ccc(/C=N/NC(N)=S)cc1`, inactive: > 100 µM.

Consider `CC(=O)Nc1ccc(-c2nnc(SCC(=O)Nc3cccc(C)c3)o2)cc1`, for which the GI50 is inactive: 23.5 µM. As for `CC1CC(=O)Nc2cc(Cl)ccc2N1C(=O)C1CC1` (centres undefined), the figure is inactive: > 100 µM; as for `CC(C)(C)C#CI1OC(=O)c2ccccc21`, inactive: 11.7 µM. As for `C=C(C)[C@@H]1CC[C@]2(C(=O)O)CC[C@]3(C)[C@H](CC[C@@H]4[C@@]5(C)CC[C@H](C(=O)/C=C/c6ccc(O)cc6)C(C)(C)[C@@H]5CC[C@]43C)[C@@H]12`, the figure is inactive: 5.82 µM.

As to `Brc1cccc(C2SCc3nc4ccccc4n32)c1` (centres undefined), the GI50 was inactive: 36.5 µM. For `CN(/N=C1\C(=O)Nc2ccccc21)c1ccccc1` the value was inactive: 48.2 µM; for `OCCOCCN1CCN(c2nc(N3CCCC3)c3nc(Cl)c(NCc4ccccc4)nc3n2)CC1`, inactive: 15.6 µM.

Consider `COc1c(C)cc2c(C(C)C)c(O)c(O)c(C=O)c2c1O`, for which the GI50 is inactive: 22.7 µM. As for `Cc1c(-c2nnc(-c3ccc(Cl)cc3)o2)c(=O)n(-c2ccccc2)n1C`, the figure is inactive: > 100 µM. As for `O=C(N/C(=C\c1ccc2c(c1)OCO2)c1nc2ccccc2[nH]1)c1ccccc1`, the GI50 was inactive: 39.4 µM. As for `CC(C)N(C(=O)C12C3C4C1C1C2C3C41I)C(C)C` (centres undefined), the figure is inactive: > 100 µM. `Cn1c(=O)n2n(c1=O)C([S+]([O-])c1ccccc1)C2` (centres undefined): the GI50 is inactive: > 100 µM. As for `S=C(N/N=C\C=N/NC(=S)N1CCCCC1)N1CCCCC1`, the GI50 was active: 0.791 µM. For `C[C@@]1(Br)C[C@@](C)(Cl)[C@@H](Br)CC1/C=C/Cl` (some centres undefined) the value was inactive: 19.5 µM; for `Cn1cc(NC(=O)Nc2cc(C(=O)Nc3cc(C(=O)Nc4cc(S(=O)(=O)O)c5cc(S(=O)(=O)O)cc(S(=O)(=O)O)c5c4)n(C)c3)n(C)c2)cc1C(=O)Nc1cc(C(=O)Nc2cc(S(=O)(=O)O)c3cc(S(=O)(=O)O)cc(S(=O)(=O)O)c3c2)n(C)c1`, inactive: > 100 µM; for `COc1cc(/N=N\c2cccc(S(=O)(=O)O)c2)c(C)cc1/N=N\c1ccc(/C=C/c2ccc(/N=[N+](/[O-])c3ccc(/C=C/c4ccc(/N=N\c5cc(C)c(/N=N/c6cccc(S(=O)(=O)O)c6)cc5OC)cc4)c(S(=O)(=O)O)c3)cc2S(=O)(=O)O)cc1`, inactive: > 100 µM. As for `N#CC1=C(C#N)/C(=C(\C#N)C(C#N)C#N)N=C1N`, the figure is inactive: 16.4 µM. As for `COc1cc(/C=C/c2ccccn2)cc(OC)c1OC`, the figure is inactive: > 10 µM.

The values are drawn from ChEMBL document CHEMBL1201862, “PubChem BioAssay data set” (2004).
